# Results: PubChem BioAssay AID504466 (National Center for Advancing Translational Sciences (NCATS), 2011)
# The whole screen tested about 330,000 compounds, of which about 4,200 (1.3%) were called active. The inconclusive results got no clear call from the source; some entries with a clear call stand among them for comparison. Calls come from the whole dose curve; as a rule, active = well fitted activation curve with a large enough effect; inconclusive = small, poorly fitted or top-dose-only effect; inactive = no such curve, though single readings can be large or run the other way. Potencies beside an inconclusive call are fits to weak or partial responses and may not hold up.
# Experiment: qHTS screen for small molecules that induce genotoxicity in human embryonic kidney (HEK293T) cells expressing luciferase-tagged ELG1; note: nearly all actives have a fitted effect of over 60% in size
# Details: HEK293T ELG1-luciferase reporter, luminescence, 16 h; series mostly up to 46 µM
# Outline: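 Reporter readout depends on ELG1 protein level, which increases with genetic stress. After 16 hr compound exposure at 37 °C, luciferase activity was quantified using ONE-Glo.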
# Potency is the fitted concentration of half-maximal effect; tags give direction and shape of the fitted curve.
row,Compound,Potency
1,Cc1cccc(NC(=O)COc2ccc(Br)cc2C)n1,active: 2 µM
2,Cc1cccc(N2CCN(C(=O)Cc3ccccc3[N+](=O)[O-])CC2)c1C,"inconclusive: 23.1 µM [activator, partial curve, poor fit]"
3,Cc1ccc(N=C/C(C(=O)C(F)(F)F)=C(\O)c2cccs2)cc1,"inconclusive: 4.61 µM [activator, single point]"
4,Cc1cc(C)c2nc3sc(C(=O)N4CCOCC4)c(N)c3cc2c1,active: 1.46 µM
5,O=C(Nc1cccc([N+](=O)[O-])c1)c1[nH]ncc1Cl,"inconclusive: 13 µM [activator, partial curve]"
6,COc1cc(CNCCO)ccc1OCC(=O)Nc1ccc(Br)cc1,"inconclusive: 9.2 µM [activator, partial curve, poor fit]"
7,COc1ccc(OCc2nnc(SCC(=O)c3c(N)n(C)c(=O)n(C)c3=O)n2-c2ccccc2F)cc1,inactive
8,O=C(Cc1ccc(Br)cc1)N1CCCCCC1,active: 20.6 µM
9,C=CCC[C@@H](Cc1ccc(F)cc1)C(=O)OC[C@@H](Cc1ccccc1)NC(=O)[C@@H](CC=C)CC(=O)N[C@@H](CO)Cc1ccccc1,"inconclusive: 29.1 µM [activator, partial curve, poor fit]"
10,O=C(CCCn1c(=S)[nH]c2ccsc2c1=O)Nc1ccc2c(c1)OCCO2,"inconclusive: 0.651 µM [activator, partial curve, poor fit]"
11,O=C(Nc1ccccc1)c1ccc2c(c1)OCCCO2,active: 0.517 µM
12,Cc1ccc(-c2cnc(-c3ccncc3)o2)cc1,active: 18.4 µM
13,Cc1ccnc(NC(=O)C2CCN(S(=O)(=O)c3ccc(C)c(C)c3)CC2)c1,"inconclusive: 5.8 µM [activator, single point]"
14,O=C(/C=C/c1ccc(Cl)c(Cl)c1)N1CCOCC1,"inconclusive: 16.4 µM [activator, partial curve, poor fit]"
15,CC(C)Sc1ccc(C(=O)Nc2ccc(F)cc2F)cn1,"inconclusive: 10.3 µM [activator, partial curve, poor fit]"
16,COc1ccc(Nc2nc(-c3ccc(OC)cc3)cs2)cc1,"inconclusive: 3.66 µM [activator, full curve, poor fit]"
17,CCC1CCc2c(sc(NC(=O)c3ccco3)c2C(N)=O)C1 (stereo unspecified),"inconclusive: 8.2 µM [activator, partial curve, poor fit]"
18,COc1cc(C(=O)N/N=C/c2sccc2C)cc(OC)c1OC,"inconclusive: 2.91 µM [activator, full curve]"
19,CC1=NN(C(N)=S)C(=O)C1N=Nc1cccc(Cl)c1 (stereo unspecified),"inconclusive: 23.1 µM [activator, single point]"
20,c1ccc(-c2cn(CC3CCCCC3)nn2)cc1,"inconclusive: 10.3 µM [activator, partial curve]"
21,CCOc1ccc(CCNC(=O)c2cc(C)nn2-c2ccccc2)cc1,inactive
22,Cc1ccc(NC(=O)C(C)OC(=O)Cc2c[nH]c3ccccc23)cc1 (stereo unspecified),"inconclusive: 29.1 µM [activator, partial curve, poor fit]"
23,NS(=O)(=O)c1ccc(N/N=C/C=C/c2ccccc2[N+](=O)[O-])cc1,"inconclusive: 4.61 µM [activator, full curve]"

row,Compound,Potency
1,O=c1c2ccccc2ncn1/N=C/c1ccccc1,active: 3.66 µM
2,Cc1cccc(OCC(=O)NCC(=O)N=Nc2c(O)[nH]c3ccc([N+](=O)[O-])cc23)c1,inactive
3,CC(C)(C)SCCNC(=O)Nc1ccccc1,inactive
4,CC(=O)Nc1ccc(SCC(=O)c2cc(C)n(C)c2C)cc1,"inconclusive: 16.4 µM [activator, partial curve, poor fit]"
5,CC(CCc1ccco1)NC(=O)CCc1nnc2ccc(NCc3ccccc3)nn12 (stereo unspecified),inactive
6,N/C(=N\N=C\c1ccc2c(c1)OCO2)c1nonc1N,"inconclusive: 1.03 µM [activator, full curve]"
7,COc1cccc(-c2cn3nc4c(nc3n2)CCCC4)c1,"inconclusive: 0.411 µM [activator, full curve]"
8,CC(=O)Nc1ccc(N(C(=O)CNC(=O)c2cccs2)C(C(=O)NCC2CCCO2)c2ccccc2)cc1 (stereo unspecified),inactive
9,O=C1/C(=C/N(C(=O)c2ccco2)c2ccc(Cl)cc2)Sc2ccccc21,"inconclusive: 5.8 µM [activator, partial curve]"
10,Cc1ccc(N2CC(C(=O)Nc3ccc4c(c3)OCCO4)CC2=O)cc1C (stereo unspecified),"inconclusive: 25.9 µM [activator, partial curve, poor fit]"
11,COc1ccc(-c2cn3c(C)c(C(=O)NC(C)(C)C)sc3n2)cc1,"inconclusive: 2.06 µM [activator, full curve, poor fit]"
12,CS(=O)(=O)c1ccc2nc(NC(=O)CCNC(=O)c3ccccc3Cl)sc2c1,inactive
13,N/C(=N\OC(=O)COc1ccc(Br)cc1Cl)c1ccccn1,active: 2.59 µM
14,CC1CCCC(C)N1C(=O)/C=C/c1ccc(S(=O)(=O)N2CCOCC2)cc1 (stereo unspecified),inactive
15,CCCCCCn1c(N2CCC(C(N)=O)CC2)nc2c1c(=O)[nH]c(=O)n2C,"inconclusive: 23.1 µM [activator, partial curve, poor fit]"
16,CCCCc1ccc(NC(=S)NCCc2ccc(F)cc2)cc1,inactive
17,COc1ccccc1CC(=O)NNC(=O)CN(C)S(=O)(=O)c1ccc(Cl)cc1,inactive
18,O=c1c2cc(NC(=S)NCc3cccnc3)ccc2nc2n1CCCCC2,inactive
19,O=C(NOCc1ccccc1)c1ccc([N+](=O)[O-])cc1,"inconclusive: 4.11 µM [activator, full curve]"
20,Cc1ccc(S(=O)(=O)N2CCN(C(=O)COC(=O)CCOc3ccc(C(C)(C)C)cc3)CC2)cc1,inactive
21,CCSc1nnc2c(n1)[nH]c1c(C)cccc12,"inconclusive: 10.3 µM [activator, partial curve]"
22,CCC(=O)c1ccc(OCC(=O)Nc2ccccc2N2CCCCC2)cc1,inactive
23,Cc1ccc(C(=O)NCCc2c[nH]c3ccccc23)s1,"inconclusive: 10.3 µM [activator, partial curve]"
